Paper PMC9926122
Results are given in words; binding and its absence hold for the method and conditions named. Some entries that bind do so weakly or less than the wild type.

The chains behind the UniProt entries cited, without tags or fusion partners.
UniProt Q15691: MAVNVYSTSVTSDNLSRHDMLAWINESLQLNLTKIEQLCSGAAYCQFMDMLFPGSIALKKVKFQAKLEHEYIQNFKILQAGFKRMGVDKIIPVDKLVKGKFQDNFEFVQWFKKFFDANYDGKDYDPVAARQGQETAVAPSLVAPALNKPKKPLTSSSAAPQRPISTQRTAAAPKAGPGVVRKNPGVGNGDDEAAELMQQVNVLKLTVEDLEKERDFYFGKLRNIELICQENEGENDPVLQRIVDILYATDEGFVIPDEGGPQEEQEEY

Molecular target: 2H-15N-labeled EB1 (human) (UniProt Q15691)
Test: NMR titration; 15N-1H TROSY at 700 MHz; Ska1 peptide from 0.5 to 65 uM added to 95 uM 2H-15N-labeled EB1 in 50 mM potassium phosphate, 300 mM KCl, 1 mM DTT, 10% D2O, pH 6.8; both purified

binding: binds
Binder: KENVPSHLPQVTVT (acetylated N-terminus) [Ska1 SHLP peptide (Ska1 p)]
